These results are taken from the supplement of paper PMC11417369.

± gives the standard deviation of the averaged measurements. Some of the results follow.

In this assay the test system is PfAP2-EXP AP2 domain (GST-tagged). The assay can be described thus: gcPBM binding intensity (ln(normalized median fluorescence intensity)); higher = stronger DNA binding. The essentials: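 After 1 h on an Agilent 4 × 180k array of primer-extended double-stranded 36-bp intergenic genomic probes and negative controls, bound GST-tagged P. falciparum DNA-binding domains were detected with Alexa488 anti-GST antibody and scanned at 488 nm. The domains had been expressed in E. coli, and binding took place in 1× PBS with 1% milk, 0.2 mg/ml BSA, 0.5% salmon testes DNA and 0.03% Triton X-100. Binding intensity is the highest Masliner-normalised natural-log median intensity across replicate spots of either probe orientation.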
Turning to “AAATAACACATATATACACACATATAAATATAATAT [CACACA_site2692]”, the “gcPBM binding intensity (ln)” value was found to be 8.6 ± 0.3.
“AAAAAAAAAAAAAAAATACACACGTGAATGTATTGT [CACACA_site1320]”: the “gcPBM binding intensity (ln)” value amounted to 8.64 ± 0.3.
To “TTTGTTTTAAATCGAAGTACACATAATTATATTTTA [XGTACX_site1541]” belongs 8.42 ± 0.23; to “TTGAATGTAGTTAAATGTACATGTAATATATAAAAA [XGTACX_site1250]”, 8.85 ± 0.33.
In the case of “AATTATTTTTTGTATGAACACACAACTTAATTATGA [CACACA_site8774]” it was 8.32 ± 0.38; in that of “TTTTTACGTAAACAAAATAATTATATAATATTATTT [CACACA_negctrl_site1769]”, 8.38 ± 0.46; in that of “TAAACAAATAAATAAACACACAATATATGTATATAT [CACACA_site3803]”, 8.38 ± 0.38.
In the case of “CGTAAATTTTTTAAAAGTACAAAAAGATACGAGAAA [XGTACX_site8722]” it was 8.79 ± 0.59; in that of “ATATATTAGGGCAAATTTTCTGACATTACATCAGTC [CACACA_negctrl_site1166]”, 8.34 ± 0.38; in that of “TTTTTAATTCAAAAAATAATATATTATATTTCAAAT [CACACA_negctrl_site737]”, 7.99 ± 0.42.
On to “ATATTTATATTTGTATGTACTTAAGTTTGTATGTAT [XGTACX_site3608]”, for which the “gcPBM binding intensity (ln)” value amounted to 8.86 ± 0.28.
In the case of “TATTTTTCTTTTTTCTGTACTCACACAAATAGAAGG [XGTACX_site7329]” it was 8.62 ± 0.33.
To “TAAAAATGTAGACACACACACATATATATATTTAAT [CACACA_site1528]” belongs 8.61 ± 0.4.
In the case of ATATATATAATATAGGTGCACTACTTATTTAAAAAA it was 9.2 ± 0.51; in that of “AAATAATTAGCTATTTGTACATATATACATATTTAT [XGTACX_site4652]”, 8.56 ± 0.37.
With “TTAATAACAAAATAAACACACATATATAAATCCACA [CACACA_site1590]”, the “gcPBM binding intensity (ln)” value came to 8.82 ± 0.26.
In the case of “AAAATGAATATAATGACGCACACTTAAAATTGTTAA [CACACA_site2509]” it was 8.31 ± 0.33; in that of “TGTGTTAAATGTAATAGTGAATAAATAATTTTAACA [TGCATGCA_negctrl_site161]”, 8.4 ± 0.41; in that of “TTTTTTAGAAAAAGTTGTACTTTTTTTTTTTTTTTT [XGTACX_site535]”, 8.41 ± 0.085.
In the case of “TTTTTATTTTTTTTATGTACACAAATGATATACATA [XGTACX_site5910]” it was 8.81 ± 0.38; in that of “AGGATACACGGACACACACACATATAGATTTATATA [CACACA_site6552]”, 8.59 ± 0.52.
To “TTTCTTTTTTTTTTTTTTTCTGGCTTTTTCTCTTTT [TGCATGCA_negctrl_site599]” belongs 8.36 ± 0.76; to “TATATTACTTAAAATACACACCATGGAAAAGTTTTA [CACACA_site5443]”, 8.64 ± 0.44.
In the case of “TTCTGAACAAAATTATATATTTATTTTTATTTTCAT [CACACA_negctrl_site422]”, the “gcPBM binding intensity (ln)” value was 8.35 ± 0.41.
